Test results: the supplement of paper PMC12217912
The list shows a part of the results. The full chains were built here from the parent and the listed change. Inactive controls read about 0.05.

B1: TEV protease; numbered along this chain (parent)
chain: MGESLFKGPRDYNPISSSICHLTNESDGHTTSLYGIGFGPFIITNKHLFRRNNGTLVVQSLHGVFKVKDTTTLQQHLVDGRDMIIIRMPKDFPPFPQKLKFREPQREERICLVTTNFQTKSMSSMVSDTSCTFPSGDGIFWKHWIQTKDGQCGSPLVSTRDGFIVGIHSASNFTNTNNYFTSVPKNFMELLTNQEAQQWVSGWRLNADSVLWGGHKVFMVKPEEPFQPVKEATQL

Variants of: B1
Assay: raw area under fraction-flipped curve 0-4 h after induction (AUC4h, not background-subtracted), DNA-recorder readout of cleavage of the substrate (dimensionless); higher = more cleavage of the substrate by the protease variant
Settings: temperature: 34 °C; time window: 0-4 h after rhamnose induction
Protocol: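 In vivo DNA recorder in E. coli TOP10(DE3) ΔrhaA at 34 °C. Each TEVp single-site mutant (parent TEVp 0) is paired with a single-site variant of the 7-mer TEVs (canonical ENLYFQ|S). The substrate sits between flexible linkers in a Bxb1-sfGFP-TEVs-SsrA fusion, so cleavage stabilises Bxb1 and speeds flipping of a recombination array, read by NGS. The value is the raw area under the fraction-flipped curve over 0-4 h after rhamnose induction (AUC4h), with ≥20 reads per time point. It is not background-subtracted; inactive controls average about 0.047.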
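Note: Bxb1 expression induced with 0.2% (w/v) L-rhamnose at OD600 near 0.5, cultures sampled hourly, flipped fraction per protease–substrate barcode pair counted by paired-end Illumina sequencing.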

MGESLFKGPRDYNPISSSGCHLTNESDGHTTSLYGIGFGPFIITNKHLFRRNNGTLVVQSLHGVFKVKDTTTLQQHLVDGRDMIIIRMPKDFPPFPQKLKFREPQREERICLVTTNFQTKSMSSMVSDTSCTFPSGDGIFWKHWIQTKDGQCGSPLVSTRDGFIVGIHSASNFTNTNNYFTSVPKNFMELLTNQEAQQWVSGWRLNADSVLWGGHKVFMVKPEEPFQPVKEATQL [I19G]
area with substrate ENLYCQS: 0.0695
area with substrate ENLYDQS: 0.0643
area with substrate ENLYEQS: 0.0639
area with substrate ENLYGQS: 0.064
area with substrate ENLYHQS: 0.0536
area with substrate ENLYKQS: 0.0547
area with substrate ENLYLQS: 0.0685
area with substrate ENLYNQS: 0.0664
area with substrate ENLYPQS: 0.0574
area with substrate ENLYQQS: 0.061
area with substrate ENLYRQS: 0.0475
area with substrate ENLYSQS: 0.0719
area with substrate ENLYVQS: 0.0652
area with substrate ENLYWQS: 0.063
area with substrate ENLYYQS: 0.0507

MGESLFKGPRDYNPISGSICHLTNESDGHTTSLYGIGFGPFIITNKHLFRRNNGTLVVQSLHGVFKVKDTTTLQQHLVDGRDMIIIRMPKDFPPFPQKLKFREPQREERICLVTTNFQTKSMSSMVSDTSCTFPSGDGIFWKHWIQTKDGQCGSPLVSTRDGFIVGIHSASNFTNTNNYFTSVPKNFMELLTNQEAQQWVSGWRLNADSVLWGGHKVFMVKPEEPFQPVKEATQL [S17G]
area with substrate ENLYCQS: 0.0473
area with substrate ENLYDQS: 0.0637
area with substrate ENLYEQS: 0.0731
area with substrate ENLYGQS: 0.0659
area with substrate ENLYHQS: 0.0724
area with substrate ENLYIQS: 0.124
area with substrate ENLYKQS: 0.0575
area with substrate ENLYLQS: 0.0854
area with substrate ENLYMQS: 0.0859
area with substrate ENLYNQS: 0.0711
area with substrate ENLYPQS: 0.0894
area with substrate ENLYQQS: 0.0487
area with substrate ENLYRQS: 0.0624
area with substrate ENLYSQS: 0.0788
area with substrate ENLYTQS: 0.0886
area with substrate ENLYVQS: 0.119
area with substrate ENLYWQS: 0.0813
area with substrate ENLYYQS: 0.0846

MGESLFKGPRDYNPISSSICHLTNESDGHTTSLYGIGFGPFIITNKHPFRRNNGTLVVQSLHGVFKVKDTTTLQQHLVDGRDMIIIRMPKDFPPFPQKLKFREPQREERICLVTTNFQTKSMSSMVSDTSCTFPSGDGIFWKHWIQTKDGQCGSPLVSTRDGFIVGIHSASNFTNTNNYFTSVPKNFMELLTNQEAQQWVSGWRLNADSVLWGGHKVFMVKPEEPFQPVKEATQL [L48P]
area with substrate ENLYCQS: 0.0379
area with substrate ENLYDQS: 0.0286
area with substrate ENLYEQS: 0.059
area with substrate ENLYHQS: 0.0679
area with substrate ENLYKQS: 0.0514
area with substrate ENLYNQS: 0.0626
area with substrate ENLYPQS: 0.0603
area with substrate ENLYQQS: 0.0599
area with substrate ENLYRQS: 0.0493
area with substrate ENLYSQS: 0.0352
area with substrate ENLYVQS: 0.0658
area with substrate ENLYWQS: 0.0502

MGESLFKGPRDYNPISSSICHLTNESDGHTTSLYGIGFGPFIITNKHTFRRNNGTLVVQSLHGVFKVKDTTTLQQHLVDGRDMIIIRMPKDFPPFPQKLKFREPQREERICLVTTNFQTKSMSSMVSDTSCTFPSGDGIFWKHWIQTKDGQCGSPLVSTRDGFIVGIHSASNFTNTNNYFTSVPKNFMELLTNQEAQQWVSGWRLNADSVLWGGHKVFMVKPEEPFQPVKEATQL [L48T]
area with substrate ENLYCQS: 0.0631
area with substrate ENLYEQS: 0.0823
area with substrate ENLYGQS: 0.0534
area with substrate ENLYHQS: 0.0604
area with substrate ENLYKQS: 0.0803
area with substrate ENLYMQS: 0.074
area with substrate ENLYNQS: 0.0496
area with substrate ENLYPQS: 0.0589
area with substrate ENLYQQS: 0.0491
area with substrate ENLYRQS: 0.0543
area with substrate ENLYSQS: 0.0592
area with substrate ENLYVQS: 0.0561
area with substrate ENLYWQS: 0.0643

MGESLFKGPRDYNPISSSICHLTNESDGHTTSLYGIGFGPFIITNKHLFRRNNGTLVVQSLHGVFKVKDTTTLQQCLVDGRDMIIIRMPKDFPPFPQKLKFREPQREERICLVTTNFQTKSMSSMVSDTSCTFPSGDGIFWKHWIQTKDGQCGSPLVSTRDGFIVGIHSASNFTNTNNYFTSVPKNFMELLTNQEAQQWVSGWRLNADSVLWGGHKVFMVKPEEPFQPVKEATQL [H76C]
area with substrate ENLYCQS: 0.0829
area with substrate ENLYDQS: 0.0613
area with substrate ENLYEQS: 0.0679
area with substrate ENLYGQS: 0.0725
area with substrate ENLYHQS: 0.0936
area with substrate ENLYIQS: 0.13
area with substrate ENLYKQS: 0.0697
area with substrate ENLYMQS: 0.0896
area with substrate ENLYNQS: 0.0635
area with substrate ENLYPQS: 0.0779
area with substrate ENLYRQS: 0.06
area with substrate ENLYSQS: 0.0697
area with substrate ENLYTQS: 0.0866
area with substrate ENLYVQS: 0.111
area with substrate ENLYWQS: 0.0816
area with substrate ENLYYQS: 0.0678

MGESLFKGPRDYNPISSSICHLTNESDGHTTSKYGIGFGPFIITNKHLFRRNNGTLVVQSLHGVFKVKDTTTLQQHLVDGRDMIIIRMPKDFPPFPQKLKFREPQREERICLVTTNFQTKSMSSMVSDTSCTFPSGDGIFWKHWIQTKDGQCGSPLVSTRDGFIVGIHSASNFTNTNNYFTSVPKNFMELLTNQEAQQWVSGWRLNADSVLWGGHKVFMVKPEEPFQPVKEATQL [L33K]
area with substrate ENLYCQS: 0.0554
area with substrate ENLYDQS: 0.0638
area with substrate ENLYEQS: 0.054
area with substrate ENLYGQS: 0.0602
area with substrate ENLYHQS: 0.0571
area with substrate ENLYIQS: 0.0529
area with substrate ENLYKQS: 0.0529
area with substrate ENLYPQS: 0.0526
area with substrate ENLYQQS: 0.0473
area with substrate ENLYSQS: 0.0536
area with substrate ENLYTQS: 0.0631
area with substrate ENLYWQS: 0.0774

MGESLFKGPRDYNPISSSICHLTAESDGHTTSLYGIGFGPFIITNKHLFRRNNGTLVVQSLHGVFKVKDTTTLQQHLVDGRDMIIIRMPKDFPPFPQKLKFREPQREERICLVTTNFQTKSMSSMVSDTSCTFPSGDGIFWKHWIQTKDGQCGSPLVSTRDGFIVGIHSASNFTNTNNYFTSVPKNFMELLTNQEAQQWVSGWRLNADSVLWGGHKVFMVKPEEPFQPVKEATQL [N24A]
area with substrate ENLYCQS: 0.0587
area with substrate ENLYEQS: 0.044
area with substrate ENLYGQS: 0.0601
area with substrate ENLYHQS: 0.0736
area with substrate ENLYKQS: 0.0549
area with substrate ENLYLQS: 0.0775
area with substrate ENLYMQS: 0.0744
area with substrate ENLYNQS: 0.0633
area with substrate ENLYPQS: 0.0681
area with substrate ENLYQQS: 0.0439
area with substrate ENLYRQS: 0.0726
area with substrate ENLYSQS: 0.086
area with substrate ENLYTQS: 0.085
area with substrate ENLYVQS: 0.0939
area with substrate ENLYWQS: 0.0641
area with substrate ENLYYQS: 0.0702

MGESLFKGPRDYNPISSSICHLTSESDGHTTSLYGIGFGPFIITNKHLFRRNNGTLVVQSLHGVFKVKDTTTLQQHLVDGRDMIIIRMPKDFPPFPQKLKFREPQREERICLVTTNFQTKSMSSMVSDTSCTFPSGDGIFWKHWIQTKDGQCGSPLVSTRDGFIVGIHSASNFTNTNNYFTSVPKNFMELLTNQEAQQWVSGWRLNADSVLWGGHKVFMVKPEEPFQPVKEATQL [N24S]
area with substrate ENLYCQS: 0.0678
area with substrate ENLYDQS: 0.065
area with substrate ENLYEQS: 0.0447
area with substrate ENLYHQS: 0.0833
area with substrate ENLYIQS: 0.0778
area with substrate ENLYKQS: 0.0713
area with substrate ENLYLQS: 0.0728
area with substrate ENLYNQS: 0.0728
area with substrate ENLYPQS: 0.0713
area with substrate ENLYRQS: 0.0462
area with substrate ENLYSQS: 0.0714
area with substrate ENLYTQS: 0.0649

MGESLFKGPRDYNPISSSICHLTGESDGHTTSLYGIGFGPFIITNKHLFRRNNGTLVVQSLHGVFKVKDTTTLQQHLVDGRDMIIIRMPKDFPPFPQKLKFREPQREERICLVTTNFQTKSMSSMVSDTSCTFPSGDGIFWKHWIQTKDGQCGSPLVSTRDGFIVGIHSASNFTNTNNYFTSVPKNFMELLTNQEAQQWVSGWRLNADSVLWGGHKVFMVKPEEPFQPVKEATQL [N24G]
area with substrate ENLYCQS: 0.075
area with substrate ENLYDQS: 0.0593
area with substrate ENLYEQS: 0.0607
area with substrate ENLYGQS: 0.0652
area with substrate ENLYHQS: 0.0632
area with substrate ENLYIQS: 0.0759
area with substrate ENLYKQS: 0.0616
area with substrate ENLYLQS: 0.0567
area with substrate ENLYMQS: 0.0654
area with substrate ENLYNQS: 0.065
area with substrate ENLYPQS: 0.0441
area with substrate ENLYQQS: 0.0614
area with substrate ENLYRQS: 0.0638
area with substrate ENLYSQS: 0.0632
area with substrate ENLYTQS: 0.0644
area with substrate ENLYVQS: 0.0756
area with substrate ENLYWQS: 0.0606
area with substrate ENLYYQS: 0.0619
